# Results: PubChem BioAssay (Tox21)
# Where “and” joins values, the source holds several entries; their conditions need not be identical. Identical values can stand only once. Inconclusive results, whose numbers are uncertain, are shown with a selection of clear calls. For some assays here: A potency beside an inconclusive call is a rough fit, not a confirmed value. Some structures have more than one record in an assay (separate samples or runs), and their calls can disagree. Calls of active or inactive are those of the source. Unless noted, calls follow the shape of the dose curve; as a rule, active = well fitted curve in the direction sought with a large enough effect in the repeat runs; inconclusive = weak or mixed curves; inactive = no such curve, though single readings can be large; an effect the other way counts as inactive or inconclusive.
# Assays:
# [1] = qHTS assay to identify small molecule antagonists of the estrogen related receptor signaling pathway with the pleiotropic PPARgamma coactivator (PGC) from Tox21 10K library - cell viability counter screen (AID 1224840; active = well fitted cell-killing curve with a large enough effect in the repeat runs, not every such curve was filed as active; inconclusive = weak or mixed curves, or effect the other way; inactive = no such curve, though single readings can be large or run the other way; also: nearly all actives have a fitted effect of over 40% in size; also: potency is read from the fitted curve at half-maximal effect)
# Method in brief: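 Counter-screen for cytotoxicity: after 17.5 h compound exposure at 37 C, CellTiter-Fluor reagent added to PGC/ERR cells for 30 min and fluorescence read. Cells were seeded at 2,000 per well 6 h before dosing.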
# [2] = qHTS assay to identify small molecule agonists of H2AX (AID 1224845; active = well fitted activation curve with a large enough effect in the signal ratio in the repeat runs, not every such curve was filed as active; inconclusive = weak or mixed curves; the % refers to the signal ratio; also: potency is read from the fitted curve at half-maximal effect); details: CHO-K1 phospho-H2AX Ser139 HTRF, 3 h; series mostly up to 154 µM
# Method in brief: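 Phospho-H2AX Ser139 measured by HTRF (ex 320 nm; em 665 and 620 nm) after 24 hr antibody incubation. Compounds, 15 concentrations, 0.76% DMSO, were applied to CHO-K1 cells for 3hr at 37C before lysis.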
# [3] = qHTS assay to identify small molecule agonists of the hypoxia (HIF-1) signaling pathway (AID 1224846; active = well fitted activation curve with a large enough effect in the signal ratio in the repeat runs, not every such curve was filed as active; inconclusive = weak or mixed curves; the % refers to the signal ratio; also: potency is read from the fitted curve at half-maximal effect); details: HRE-bla ME-180 cells, beta-lactamase ratio, 17 h; activation: at 76.8 µM (top of the series) unless noted
# Method in brief: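 Compounds added to ME-180 cells carrying hypoxia-response-element beta-lactamase reporter (0.5% dialyzed FBS, 5 h preplating), 17 h at 37C; agonist activity detected by CCF4-AM B/G FRET read-out.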
# [4] = A CellTox Green Cytotoxicity Assay to monitor cytotoxicity in HEK293 cells - 40 hour (AID 1224871); also: nearly all actives have a fitted effect of over 45% in size; also: potency is read from the fitted curve at half-maximal effect
# Method in brief: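 Fluorescence from a DNA-binding dye excluded by viable cells was measured repeatedly in the same HEK293 wells (600 cells/well) during continuous compound exposure at 37 C. Each assay gives one read point: 0, 8, 16, 24, 32 or 40 h.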
# [5] = qHTS RealTime-Glo MT Cell Viability Assay in HEK293 cells - 16 hour (AID 1224872); also: potency is read from the fitted curve at half-maximal effect; nearly all actives have a fitted effect of over 50% in size
# Method in brief: (§1)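 Reads taken at 0, 8, 16, 24, 32 and 40 h from the same wells. HEK293 cells (600/well) carried RealTime-Glo reagents from seeding, with compound added after a 5 h settle at 37 C.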
# [6] = qHTS assay to identify small molecule agonists of the hypoxia (HIF-1) signaling pathway - cell viability counter screen (AID 1224844; calls by dose curve; also: potency is read from the fitted curve at half-maximal effect; nearly all actives have a fitted effect of over 50% in size)
# Method in brief: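 Cytotoxicity measured by CellTiter-Glo ATP luminescence in the wells also read for beta-lactamase signal. Cells were HRE-bla ME-180 (2,000/well, 0.5% dialyzed FBS), exposed to compounds for 17 h at 37C.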
# [7] = qHTS assay to identify small molecule antagonists of the estrogen related receptor (ERR) signaling pathway from Tox21 library (AID 1224848); also: nearly all actives have a fitted effect of over 50% in size; also: potency is read from the fitted curve at half-maximal effect
# Method in brief: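 Luciferase luminescence (ONE-Glo, 30 min room temperature) was the read-out. Cells of the NTP-supplied ERR line, 2,000 per well, were given 6 h at 37 C before compound addition in DMSO and 18 h exposure at 37 C.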
# [8] = qHTS RealTime-Glo MT Cell Viability Assay in HEK293 cells - 40 hour (AID 1224874); details: RealTime-Glo luminescence; max response: stronger effect = lower value; also: potency is read from the fitted curve at half-maximal effect; nearly all actives have a fitted effect of over 50% in size
# Method in brief: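 Luminescence, which tracks viable cell number through reduction of the prosubstrate to a NanoLuc substrate, was read over continuous 37 C culture. Cells (600/well) were premixed with reagent and rested 5 h before 23 nL of compound in DMSO was pinned.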
# [9] = biological target: Thyrotropin receptor (Homo sapiens) (UniProt P16473); assay: qHTS assay to identify small molecule agonists of the thyroid stimulating hormone receptor (TSHR) signaling pathway (AID 1224843; calls by dose curve; also: nearly all actives have a fitted effect of over 45% in size; also: potency is read from the fitted curve at half-maximal effect); details: TSHR-HEK293 cells, cAMP HTRF, agonist mode, 30 min; activation: at 92.4 µM (top of the series) unless noted
# Method in brief: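 Agonist activity read as cAMP rise via d2/cryptate HTRF competition, 1 h room-temperature detection, in HEK293 cells expressing TSHR. Fifteen-point titrations, each run in triplicate, with a 30 min room-temperature incubation beforehand.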
# [10] = qHTS RealTime-Glo MT Cell Viability Assay in HEK293 cells - 32 hour (AID 1224868)
# Method in brief: as §1
# [11] = qHTS RealTime-Glo MT Cell Viability Assay in HepG2 cells - 24 hour (AID 1224867)
# Method in brief: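 HepG2 suspension premixed with RealTime-Glo reagents is plated at 600 cells per well and left 5 h at 37 C/5% CO2. Compounds in DMSO then go in, and bioluminescence reflecting viable cell number is recorded over 40 h.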
# [12] = qHTS assay to identify small molecule antagonists of the estrogen related receptor signaling pathway with the pleiotropic PPARgamma coactivator (PGC) from Tox21 10K library (AID 1224841; call rule not given here; also: potency is read from the fitted curve at half-maximal effect)
# Method in brief: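 Luminescence (One-Glo, 30 min at room temperature) after 18 h compound treatment at 37 C of PGC/ERR reporter cells plated at 2,000 cells/well and settled 6 h beforehand.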
# [13] = qHTS assay to identify small molecule agonists of H2AX - cell viability counter screen (AID 1224847; calls by dose curve; also: potency is read from the fitted curve at half-maximal effect; nearly all actives have a fitted effect of over 30% in size)
# Method in brief: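 Viability of CHO-K1 (wild type) cells after 3 hr compound exposure was measured by CellTiter-Glo luminescence.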
# [14] = qHTS RealTime-Glo MT Cell Viability Assay in HepG2 cells - 8 hour (AID 1224873); also: potency is read from the fitted curve at half-maximal effect; nearly all actives have a fitted effect of over 55% in size
# Method in brief: (§2)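 Real-time viability: cells seeded at 600 per well together with NanoLuc and cell-permeant prosubstrate, compounds added after 5 h incubation. Luminescence tracked at 0, 8, 16, 24, 32 and 40 h of exposure.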
# [15] = qHTS assay to identify small molecule agonists of the estrogen related receptor signaling pathway with the pleiotropic PPARgamma coactivator (PGC) from Tox21 10K library (AID 1224842); also: nearly all actives have a fitted effect of over 15% in size
# Method in brief: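 Luminescence from One-Glo (30 min, room temperature) measured after PGC/ERR cells had 18 h at 37 C with pinned compound (23 nL in DMSO). Cells had been seeded at 2,000 per well and pre-incubated 6 h.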
# [16] = qHTS RealTime-Glo MT Cell Viability Assay in HepG2 cells - 40 hour (AID 1224870)
# Method in brief: as §2
# Tags tell the direction and shape of the fitted curve or compound fluorescence and quenching.
# Chain of UniProt P16473 (P16473 whole entry, looked up): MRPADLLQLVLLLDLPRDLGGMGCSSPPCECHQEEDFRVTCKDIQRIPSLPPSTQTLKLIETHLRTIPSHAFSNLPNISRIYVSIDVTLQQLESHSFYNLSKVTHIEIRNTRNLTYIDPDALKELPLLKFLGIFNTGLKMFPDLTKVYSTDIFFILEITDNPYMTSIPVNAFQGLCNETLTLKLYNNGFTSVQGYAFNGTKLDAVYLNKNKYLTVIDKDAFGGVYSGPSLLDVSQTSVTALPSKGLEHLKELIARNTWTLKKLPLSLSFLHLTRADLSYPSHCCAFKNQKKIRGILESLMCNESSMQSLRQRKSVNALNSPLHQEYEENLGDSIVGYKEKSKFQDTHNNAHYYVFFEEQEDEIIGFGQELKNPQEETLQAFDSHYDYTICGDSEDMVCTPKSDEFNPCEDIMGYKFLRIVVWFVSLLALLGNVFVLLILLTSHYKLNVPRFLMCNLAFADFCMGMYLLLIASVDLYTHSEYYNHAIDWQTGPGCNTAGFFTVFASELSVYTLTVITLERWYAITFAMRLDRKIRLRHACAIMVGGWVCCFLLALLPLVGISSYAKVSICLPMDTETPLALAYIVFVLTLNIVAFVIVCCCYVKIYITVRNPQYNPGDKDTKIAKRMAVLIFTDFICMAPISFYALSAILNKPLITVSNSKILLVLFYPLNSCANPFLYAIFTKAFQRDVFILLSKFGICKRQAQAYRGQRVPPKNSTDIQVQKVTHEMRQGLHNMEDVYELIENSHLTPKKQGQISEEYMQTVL
smiles,measurement,setting,value
c1cc[c]([Hg][c]2ccccc2)cc1,Potency,[1],"inconclusive: 54.5 µM [cytotoxic, partial curve]"
same,Potency,[2],"inconclusive: 127 µM [activator, single point]"
same,Potency,[3],inconclusive: 54.9 µM [single point]
same,Potency,[4],active: 34.7 µM
same,Potency,[5],active: 34.7 µM
C[C@@H]1C[C@@H]([C@H](O)CC2CC(=O)NC(=O)C2)C(=O)[C@@H](C)C1,Potency,[1],"inconclusive: 430 nM [cytotoxic, full curve] and inconclusive: 193 nM [cytotoxic, full curve]"
same,Potency,[6],"inconclusive: 307 nM [cytotoxic, full curve] and inconclusive: 549 nM [cytotoxic, full curve]"
same,Potency,[7],active: 682 nM and active: 545 nM and active: 750 nM
same,Potency,[4],"active: 19.5 µM and inconclusive: 3.01 µM [activator, partial curve]"
same,Potency,[5],"inconclusive: 613 nM [cytotoxic, full curve] and inconclusive: 309 nM [cytotoxic, full curve] and inconclusive: 338 nM [cytotoxic, full curve]"
same,Potency,[8],active: 387 nM and active: 245 nM and active: 169 nM
COc1ccc(/C(=C/C(=O)N2CCOCC2)c2ccc(Cl)cc2)cc1OC,Potency,[1],inactive
same,Potency,[9],inactive
same,Potency,[10],"inconclusive: 27.5 µM [cytotoxic, partial curve]"
same,Potency,[4],inactive
same,Potency,[8],"inconclusive: 38.9 µM [cytotoxic, partial curve]"
CCCCCCCCCCCCn1cc[n+](C)c1,Potency,[1],"inconclusive: 27.6 µM [cytotoxic, partial curve]"
same,Potency,[6],"inconclusive: 49.4 µM [cytotoxic, partial curve, poor fit]"
same,Potency,[11],"inconclusive: 39.2 µM [falling, partial curve]"
same,Potency,[5],"inconclusive: 0.783 µM [cytotoxic, full curve]"
N#CSCSC#N,Potency,[12],"inconclusive: 78.7 µM [falling, single point]"
same,Potency,[9],"inconclusive: 9.91 µM [activator] and inconclusive: 30.3 µM [inhibitor, full curve]"
same,Potency,[2],active: 15.8 µM
same,Potency,[3],"inconclusive: 15.8 µM [falling, full curve] and inconclusive: 17.2 µM [falling, full curve]"
same,Potency,[13],active: 51.6 µM and active: 50 µM
same,Potency,[10],active: 12.6 µM and active: 21.7 µM
same,Potency,[4],"inconclusive: 11.2 µM [activator, full curve, poor fit]"
same,Potency,[5],active: 12.6 µM and active: 15.3 µM
same,Potency,[14],"inconclusive: 56.2 µM [falling, single point]"
N#Cc1sc2c(=O)c3ccccc3c(=O)c=2sc1C#N,Potency,[12],"inconclusive: 109 µM [falling, partial curve, poor fit]"
same,Potency,[15],inactive
same,Potency,[9],"inconclusive: 38.6 nM [activator, full curve]"
same,Potency,[2],"inconclusive: 45 µM [falling, partial curve]"
same,Potency,[3],"inconclusive: 5.49 µM [falling, full curve]"
same,Potency,[7],active: 61.1 µM
same,Potency,[10],active: 17.4 µM
same,Potency,[16],active: 11 µM
same,Potency,[5],active: 11 µM
same,Potency,[14],active: 9.77 µM
Cc1ccc2c(c1N)C(=O)c1ccccc1C2=O,Potency,[1],"inconclusive: 24.1 µM [cytotoxic, full curve]"
same,Potency,[2],"inconclusive: 56 µM [falling, partial curve, poor fit]"
same,Potency,[7],inactive
same,Potency,[5],active: 8.62 µM and active: 8.71 µM
CC1(C)C(C=C(Cl)Cl)C1C(=O)OC(C#N)c1ccc(F)c(Oc2ccccc2)c1 (stereo not drawn),Potency,[12],inactive
same,Potency,[15],inactive
same,Potency,[9],"inconclusive: 3440 nM [inhibitor, full curve]"
same,Potency,[3],inconclusive: 54.9 µM
same,Potency,[7],inconclusive: 54.5 µM [inhibitor]
same,Potency,[5],"inconclusive: 54.9 µM [cytotoxic, partial curve, poor fit]"
same,Potency,[14],"inconclusive: 49 µM [falling, partial curve]"
CCCCCCC[CH2][Sn]([Cl])([Cl])[CH2]CCCCCCC,Potency,[1],"inconclusive: 68.5 µM [cytotoxic, single point]"
same,Potency,[6],"inconclusive: 61.6 µM [cytotoxic, single point]"
same,Potency,[2],"inconclusive: 113 µM [rising, single point]"
